Screen size: about 270,000 compounds; about 620 (0.23%) were called active. Inconclusive results, whose numbers are uncertain, are shown with a selection of clear calls. Calls come from the whole dose curve; as a rule, active = well fitted inhibition curve with a large enough effect in the polarisation, with a control signal flat (not every such curve was filed as active); inconclusive = small, poorly fitted or top-dose-only effect, or effect the other way, or a change in a side signal; inactive = no such curve, though single readings can be large or run the other way; the % refers to the polarisation. Where the call is inconclusive, the potency comes from a doubtful curve fit. A note “side channel” means that the fit belongs to a control or component signal, not to the main read-out.
target: Menin (Homo sapiens) (UniProt O00255); assay: qHTS Assay for Inhibitors Targeting the Menin-MLL Interaction in MLL Related Leukemias: Competition With Texas Red Labeled MLL-derived Mutant Peptide; settings: fluorescence polarization; FP activity change, negative = inhibition: at 61.6 µM (top of the series); for FP activity change, negative = inhibition: % of control where 0% means no effect
Potency is the fitted concentration of half-maximal effect; tags give direction and shape of the fitted curve or compound fluorescence and quenching.

UniProt O00255, sequence (O00255 whole entry, looked up): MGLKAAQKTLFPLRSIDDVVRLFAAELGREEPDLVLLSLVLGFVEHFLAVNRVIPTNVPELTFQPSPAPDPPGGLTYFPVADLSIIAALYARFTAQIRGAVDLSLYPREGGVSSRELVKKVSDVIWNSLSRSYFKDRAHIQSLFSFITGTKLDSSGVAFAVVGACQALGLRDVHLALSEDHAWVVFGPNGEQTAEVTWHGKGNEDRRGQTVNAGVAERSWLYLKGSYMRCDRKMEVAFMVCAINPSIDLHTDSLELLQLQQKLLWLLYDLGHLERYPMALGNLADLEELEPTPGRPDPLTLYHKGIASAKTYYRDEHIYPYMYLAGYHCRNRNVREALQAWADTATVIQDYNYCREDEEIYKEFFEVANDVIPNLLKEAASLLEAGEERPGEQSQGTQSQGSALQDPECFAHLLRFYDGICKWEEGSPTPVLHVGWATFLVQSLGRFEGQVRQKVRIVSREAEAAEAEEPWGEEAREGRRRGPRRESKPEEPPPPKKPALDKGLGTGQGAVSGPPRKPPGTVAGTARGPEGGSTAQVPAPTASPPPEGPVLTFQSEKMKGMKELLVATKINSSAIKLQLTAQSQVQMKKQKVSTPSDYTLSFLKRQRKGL

Row | Compound | Potency | FP activity change, negative = inhibition
1 | Cc1cc(C(=O)N/N=C/c2c[nH]c3ccccc23)cs1 | inconclusive: 10 µM [quencher, side channel, partial curve] | 
2 | CCCCCCCC/C=C/CCCCCCCC(=O)NCCOP(=O)(O)O |  | inactive: -11.6%
3 | O=C(C1=C(c2ccccc2)C(=O)c2ccccc2C1=O)c1ccccc1 | inconclusive: 12.6 µM [quencher, side channel, partial curve] | 
4 | CC(C)C[C@H](NC(=O)c1cc2cc(Cl)ccc2n1C)C(=O)N1CCC[C@H]1C(=O)O | inconclusive: 39.8 µM [inhibitor, single point] | 
5 | O=S(O)CO |  | inactive: 1.87%
6 | O=C(CCc1ccc(Oc2cc([N+](=O)[O-])cc([N+](=O)[O-])c2)cc1)Nc1cccc(Cl)c1 | inconclusive: 12.6 µM [quencher, side channel, partial curve] | 
7 | CN(C)c1ccc(NC(=O)CSCc2nc3c(nnn3Cc3ccc(F)cc3)c(=O)[nH]2)cc1 | inconclusive: 28.2 µM [quencher, side channel, single point] | 
8 | Cc1cc(SC(C)C(=O)NCC(=O)Nc2ccc(F)c(F)c2F)nc2ccccc12 (configuration not stated) | inconclusive: 31.6 µM [fluorescent, side channel, single point] | 
9 | O=C(O)/C=C/C(=O)Nc1ccc(SC(F)(F)C(F)(F)C(F)(F)F)cc1 |  | inactive: 0.256%
10 | Cc1ccc(C(=O)N/N=C/C=C/c2ccccc2)cc1 | inconclusive: 31.6 µM [fluorescent, side channel, single point] | 
11 | COc1ccc(-c2[nH]ncc2-c2cnn(-c3ccccc3)c2)c(O)c1 | inconclusive: 15.8 µM [quencher, side channel, partial curve] | 
12 | Cc1cccnc1NC(=S)NC(=O)c1oc2ccccc2c1C | inconclusive: 25.1 µM [inhibitor, partial curve] | 
13 | CC(C)=CCc1c2c(c3occ(-c4ccc(O)c(O)c4)c(=O)c3c1O)C=CC(C)(C)O2 | inconclusive: 10 µM [quencher, side channel, partial curve] | 
14 | O=C(Nc1ccccc1C(=O)O)c1cc(S(=O)(=O)N2CCCCC2)cs1 | inconclusive: 14.1 µM [quencher, side channel, partial curve] | 
15 | O=C(/C=C\c1cn(-c2ccccc2)nc1-c1ccccc1)Nc1nccs1 | inconclusive: 5.01 µM [quencher, side channel, full curve] | 
16 | O=C(CSc1nnc(-c2ccco2)c(-c2ccco2)n1)Nc1ccccc1 | inconclusive: 14.1 µM [quencher, side channel, partial curve] | 
17 | O=c1[nH]c(=O)n(Cc2ccccc2)c2nc(-c3ccco3)cc(C(F)(F)F)c12 |  | inactive: 1.71%
18 | N#CCCn1c(=O)c(-c2cccs2)nc2cnc(Nc3ccccc3)nc21 | inconclusive: 39.8 µM [inhibitor, single point] | 
19 | CCN(CC)c1ccc(S(=O)(=O)N2CCOCC2)cc1NC(=O)CN1CCc2ccccc2C1 | inconclusive: 1.78 µM [fluorescent, side channel, full curve] | 

Row | Compound | Potency | FP activity change, negative = inhibition
20 | O=C(c1ccc(Cl)cc1)C1CCCN(C(=O)/C=C/c2ccccn2)C1 (configuration not stated) | inconclusive: 11.2 µM [inhibitor, partial curve] | 
21 | O=C(CN1C(=O)S/C(=C\c2ccccc2)C1=O)Nc1cc([N+](=O)[O-])ccc1O | inconclusive: 15.8 µM [quencher, side channel, partial curve] | 
22 | O=C1c2ccccc2C(=O)N1CC(O)COc1ccc(Cl)cc1 (configuration not stated) |  | inactive: -27%
23 | CCN1C=C(Cc2ccc(F)cc2)C2=C(C1)C(c1ccc(F)cc1)C(C#N)=C(N)O2 (configuration not stated) | inconclusive: 22.4 µM [fluorescent, side channel, partial curve] | 
24 | Cc1c(/C=N/NC(=O)c2ccc(O)cc2)c2ccccn2c1C(=O)c1ccc(F)cc1 | inconclusive: 15.8 µM [quencher, side channel, partial curve] | 
25 | O=c1cnc2cncnc2n1Cc1ccc(F)cc1 |  | inactive: -0.203%
26 | CC(C)Oc1ccc(N2CC(C(=O)OCC(=O)NCc3ccccc3)CC2=O)cc1 (configuration not stated) | inconclusive: 10 µM [inhibitor, partial curve] | 
27 | Nc1c(C(=O)Nc2ccc(F)cc2)sc(=S)n1-c1ccccc1F | inconclusive: 39.8 µM [inhibitor, single point] | 
28 | CN(C(=O)CN(CCO)CC(=O)N(C)C(C)(C)Cc1ccccc1)C(C)(C)Cc1ccccc1 | inconclusive: 14.1 µM [fluorescent, side channel, partial curve] | 
29 | Oc1ccc(Br)cc1/C=N/Nc1ccccn1 | inconclusive: 11.2 µM [quencher, side channel, partial curve] | 
30 | O=C(CSc1ccsc1[N+](=O)[O-])NCCc1ccc(Cl)cc1 | inconclusive: 10 µM [quencher, side channel, partial curve] | 
31 | COc1ccc(C)cc1-n1nnnc1SCC(=O)c1cc(C)n(Cc2ccco2)c1C | inconclusive: 39.8 µM [quencher, single point] | 
32 | O=C(CSc1nc2ccccc2s1)Nc1ccc2c(c1)oc1ccccc12 | inconclusive: 35.5 µM [quencher, side channel, single point] | 
33 | Cc1ccc(C(=O)NC(NC(=S)Nc2ccc(S(N)(=O)=O)cc2)C(Cl)(Cl)Cl)cc1 (configuration not stated) | inconclusive: 10 µM [quencher, side channel, single point] | 
34 | COCCN(CCOC)Cc1c(O)ccc2c1O/C(=C\c1ccco1)C2=O | inconclusive: 25.1 µM [quencher, side channel, single point] | 
35 | CCOC(=O)C1CCN(c2nc3ccccc3nc2C(C#N)C(=O)OC(C)COC)CC1 (configuration not stated) | inconclusive: 10 µM [fluorescent, side channel, partial curve] | 
36 | COc1ccc(-c2csc(N(CCCN(C)C)C(=O)c3ccccc3C)n2)cc1 | inconclusive: 0.631 µM [inhibitor, full curve, poor fit] | 
37 | CC1=NOC(=O)/C1=C\c1ccc(-c2cc(Cl)ccc2Cl)o1 | inconclusive: 5.01 µM [quencher, side channel, full curve, poor fit] | 
38 | CCOC(=O)N/N=C1/C[C@@H](O)[C@@H](O)[C@@H]2[C@@H]3C(=O)N(C(C)(C)C)C(=O)[C@H]3CC[C@H]12 |  | inactive: -6.32% [at 11.7 µM]

Row | Compound | Potency | FP activity change, negative = inhibition
39 | Clc1ccccc1/C=N/N1CCN(Cc2ccccc2)CC1 | inconclusive: 39.8 µM [inhibitor, single point] | 
40 | COC(=O)c1sccc1NC(=O)Nc1cccc(C)c1 | inconclusive: 14.1 µM [quencher, side channel, partial curve] | 
41 | S=c1[nH]cc(-c2ccccc2)n1-c1ccccc1 | inconclusive: 2.51 µM [inhibitor, full curve] | 
42 | COC(CNC(=O)c1ccc2c(=O)n(Cc3ccc(Cl)cc3)c(=S)[nH]c2c1)OC | inconclusive: 35.5 µM [fluorescent, side channel, single point] | 
43 | Cc1cc(NC(=O)CCC(=O)N(c2ccc(F)cc2)C(C(=O)NC2CCCC2)c2ccc(C)o2)no1 (configuration not stated) | inconclusive: 7.08 µM [fluorescent, side channel, partial curve] | 
44 | CC1=C(C(=O)OC(C)(C)C)C(c2cccc3ccccc23)NC(=O)N1 (configuration not stated) | inconclusive: 39.8 µM [inhibitor, single point] | 
45 | COc1cc(NC(=O)c2ccco2)c(OC)cc1NC(=O)Nc1ccc(Cl)cc1 | inconclusive: 6.31 µM [quencher, side channel, partial curve] | 
46 | COc1cc(CNc2ccc3[nH]c(=O)[nH]c3c2)cc(Br)c1OCc1ccc(F)cc1 | inconclusive: 3.55 µM [quencher, side channel, partial curve] | 
47 | O=C(CSCc1ccc(Cl)cc1)Nc1cccc(C(=O)Nc2ccccc2C(=O)O)c1 | inconclusive: 14.1 µM [quencher, side channel, partial curve] | 
48 | Cc1ccc(Sc2c(C#N)c(-c3ccccc3)nn2C)cc1 |  | inactive: -0.119%
49 | CN(C)c1ccc(/C=N/N2CCN(Cc3ccccc3Cl)CC2)cc1 |  | inactive: 0.503%
50 | Cn1c(=O)n(CCc2ccccc2)c(=O)c2c1nc1n2CCCN1CCc1ccccc1 | inconclusive: 3.55 µM [inhibitor, single point] | 
51 | CCOC(=O)c1ccc(NC(=O)NCc2ccccc2OC)cc1 | inconclusive: 15.8 µM [quencher, side channel, partial curve] | 
52 | CSCCC1NC(=O)N(C(C)C(=O)Nc2cc(Cl)cc(Cl)c2)C1=O (configuration not stated) | inconclusive: 25.1 µM [quencher, side channel, single point] | 
53 | Cc1ccc(CNC(=O)C2CCC(CNS(=O)(=O)c3cccs3)CC2)cc1 (configuration not stated) | inconclusive: 35.5 µM [fluorescent, side channel, single point] | 
54 | CC(C)C(NC(=O)c1ccc(C(C)(C)C)cc1)C(=O)NCCc1ccccn1 (configuration not stated) | inconclusive: 39.8 µM [fluorescent, side channel, single point] | 
55 | Cc1cn(-c2cc(NC(=O)c3ccc(C)c(NC(=O)c4cccc(-c5cn[nH]c(=O)c5)c4)c3)cc(C(F)(F)F)c2)cn1 | inconclusive: 4.47 µM [quencher, side channel, partial curve] | 
56 | COc1cc(/C=C2\SC(=S)N(CCC(=O)Nc3ccccc3O)C2=O)cc(OC)c1OC | inconclusive: 10 µM [quencher, side channel, partial curve] | 
57 | O=C(c1ccc2ccccc2c1)N1CCN(c2ccc(O)cc2)CC1 |  | inactive: -7.4%

From PubChem BioAssay AID1768 (National Center for Advancing Translational Sciences (NCATS), 2009)
